# Experimental data from article PMC4336329 (PLoS ONE, 2015).
# In all, about 310,000 compounds went through this assay and about 14,000 (4.5%) showed an effect of 50% or more. Effects have a minus sign here. Some of the results follow.
# Molecular target: human ether-à-go-go-related gene (hERG) potassium channel (human, UniProt Q12809)
# Experiment: primary screen, population patch clamp on CHO cells stably expressing hERG
# 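Also: peak tail current of the secondary pulse compared with the same well before compound.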
# human ether-à-go-go-related gene (hERG) potassium channel, sequence (Q12809 whole entry, looked up): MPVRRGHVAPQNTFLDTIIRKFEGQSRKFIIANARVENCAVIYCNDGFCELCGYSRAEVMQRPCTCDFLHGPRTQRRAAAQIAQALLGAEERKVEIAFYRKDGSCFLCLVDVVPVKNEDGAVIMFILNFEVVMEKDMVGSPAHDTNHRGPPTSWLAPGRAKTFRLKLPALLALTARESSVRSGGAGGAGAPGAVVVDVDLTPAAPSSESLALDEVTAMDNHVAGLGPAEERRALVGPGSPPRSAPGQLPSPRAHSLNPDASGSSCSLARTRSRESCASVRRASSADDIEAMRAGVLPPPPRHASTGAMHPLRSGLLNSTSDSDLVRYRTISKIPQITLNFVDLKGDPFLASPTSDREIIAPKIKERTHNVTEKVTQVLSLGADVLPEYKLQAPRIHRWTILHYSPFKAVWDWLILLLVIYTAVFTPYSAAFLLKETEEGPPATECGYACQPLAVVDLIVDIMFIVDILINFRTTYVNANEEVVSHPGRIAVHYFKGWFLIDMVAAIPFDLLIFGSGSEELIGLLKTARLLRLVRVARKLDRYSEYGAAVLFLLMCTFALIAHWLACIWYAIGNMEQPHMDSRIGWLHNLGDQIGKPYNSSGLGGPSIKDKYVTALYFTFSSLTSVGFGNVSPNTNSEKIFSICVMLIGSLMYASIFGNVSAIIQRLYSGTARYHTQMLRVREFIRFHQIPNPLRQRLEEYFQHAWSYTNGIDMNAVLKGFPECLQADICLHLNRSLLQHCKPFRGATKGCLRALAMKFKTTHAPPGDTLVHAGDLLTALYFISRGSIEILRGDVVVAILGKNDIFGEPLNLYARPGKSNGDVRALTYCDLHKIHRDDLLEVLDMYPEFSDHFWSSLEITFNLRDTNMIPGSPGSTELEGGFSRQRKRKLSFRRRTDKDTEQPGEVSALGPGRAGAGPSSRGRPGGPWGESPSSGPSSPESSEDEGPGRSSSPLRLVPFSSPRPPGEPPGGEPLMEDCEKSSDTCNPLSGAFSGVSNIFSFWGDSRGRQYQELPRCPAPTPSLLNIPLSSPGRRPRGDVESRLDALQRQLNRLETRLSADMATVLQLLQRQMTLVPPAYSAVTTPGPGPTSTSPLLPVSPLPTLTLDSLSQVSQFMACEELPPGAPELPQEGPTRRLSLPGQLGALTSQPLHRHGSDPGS
row,Structure (SMILES),"hERG current change (%, negative = inhibition) at 10uM"
1,Cc1ccc(S(=O)(=O)NC(=O)N(CCC#N)Cc2ccccc2)cc1,13.5%
2,O=C1C2C(c3cccc(/C=C/c4ccccc4)c3)CC=CC2C(c2ccc(C(F)(F)F)cc2)N1Cc1ccccc1 (stereo not drawn),8.53%
3,O=C(NCCCn1ccnc1)c1cc2nc(-c3ccc(Br)cc3)cc(C(F)(F)F)n2n1,-62.8%
4,O=C(c1ccc2c(c1)OCCO2)C1CCN(S(=O)(=O)c2cccc(F)c2)CC1,-18.7%
5,Cn1cc(CC(=O)NCc2ccc(F)cc2)c2ccccc21,5.76%
6,COc1ccccc1/C=C/C(=O)NCc1ccccn1,8.76%
7,N#C[C@@H]1N(Cc2ccccc2)C(=O)[C@H]2CC3C=CC21O3 (stereo partly drawn),-11.3%
8,Cc1cccc(NC(=S)N(CCCN2CCOCC2)Cc2cn(C)c3ccccc23)c1,-10.8%
9,Cc1ncoc1C(=O)N1CCCC(CCC(=O)NCc2ccc(F)c(F)c2)C1 (stereo not drawn),14.6%
10,CCC(C)[C@H](NC(=O)Nc1cccc(OC)c1)C(=O)OC (stereo partly drawn),15.9%
11,C/C(=N/NC(=O)CNC(=O)c1cccnc1)c1ccc([N+](=O)[O-])cc1,-14.2%
12,COC(=O)CSc1ccnc2cc(Cl)ccc12,9.81%
13,CCCn1c(=O)[nH]c2ccccc21,13.9%
14,N#CCN(N=Nc1ccccc1)c1ccccc1,8.98%
15,CCn1c(=NC(=O)COc2ccccc2)sc2cccc(F)c21,15.2%
16,O=C(CCc1ccccc1)Nc1ccc(N2CCOCC2)c(Cl)c1,-27.4%
17,Oc1ccc(/C=N/Nc2cccc3cccnc23)c(O)c1,-1.82%
18,Cc1ccc2c(c1)NCC(C(=O)NC1CCC(C)CC1)O2 (stereo not drawn),6.16%
19,O=C(NC1CCN(Cc2cccc([N+](=O)[O-])c2)CC1)c1ccccc1,-53.7%
20,COc1ccc(Cl)c(Cn2c(NCC(C)O)nc3c2c(=O)n(C)c(=O)n3C)c1 (stereo not drawn),0.12%
21,CCCSc1nc2c(c(=O)[nH]c(=O)n2C)n1C,2.58%
22,CN(CC(=O)Nc1cccc(F)c1)C(=O)c1csc2c1CCCC2,4.83%

row,Structure (SMILES),"hERG current change (%, negative = inhibition) at 10uM"
1,Cc1ccc(NC(=O)NC2CC(=O)N(c3ccc4c(c3)OCCO4)C2)cc1F (stereo not drawn),1.62%
2,N#CCCN(C(=O)COC(=O)C1=NNC(=O)CC1)c1ccccc1,15.3%
3,CCC(CC)c1nnc(NC(=O)c2ccc(N3CCCC3=O)cc2)s1,-8%
4,CC(C)(C)NS(=O)(=O)c1ccc(NC(=O)C2CCCO2)cc1 (stereo not drawn),3.42%
5,CN1C(=O)CC(N2CCN(c3ccc(Cl)cc3)CC2)C1=O (stereo not drawn),-23.6%
6,c1ccc(OCCOc2cccc3cccnc23)cc1,-17.3%
7,COc1ccc(S(=O)(=O)Nc2ccc(S(=O)(=O)N3CCOCC3)cc2)cc1,-10.5%
8,CCOc1cc(CN2CCSCC2)ccc1O,-4.22%
9,CCOc1ccc(CCNC(=O)c2cc(S(=O)(=O)N3CCOCC3)ccc2C)cc1OCC,1.87%
10,Cc1ccc(OCC(=O)Nc2ccc(C)c(S(=O)(=O)N3CCCCCC3)c2)c([N+](=O)[O-])n1,-32.2%
11,COC(=O)c1cccc(NC(=O)CSc2nnc(-c3ccco3)o2)c1,5.49%
12,Cc1cc(C(=O)CN2c3cccc4cccc(c34)S2(=O)=O)c(C)n1C,3.63%
13,COc1ccc(NC(=O)c2ccc(CNS(=O)(=O)c3cccc(OC)c3)cc2)cc1,1.5%
14,COc1ccc(OC)c(C2CC(=O)OC3=C2C(=O)CC(C)(C)C3)c1 (stereo not drawn),0.996%
15,O=S(=O)(c1ccc(F)cc1)N1CC=C(c2ccccc2)CC1,1.9%
16,COc1ccc2c(c1)C(C)=CC(C)(C)N2S(=O)(=O)c1ccc(C)cc1,-0.468%
17,COc1ccc(CCNc2cc(N3CCN(C(=O)c4ccccc4OC)CC3)ccc2[N+](=O)[O-])cc1OC,14.8%
18,Cc1ccc2cc(NC(=O)c3ccc(C(C)(C)C)cc3)ccc2n1,-0.476%
19,O=C(CCNS(=O)(=O)c1ccccc1F)NCc1ccc2c(c1)OCO2,4.75%
20,c1ccc(Cc2nnc3sc(-c4ccccn4)nn23)cc1,-6.6%
21,O=C(NC(=S)NCC1CCCO1)c1ccccc1[N+](=O)[O-] (stereo not drawn),12.5%
22,COc1ccc(C(=O)CN(C(=O)c2ccc(Cl)cc2)N2C(=O)c3ccccc3C2=O)cc1,-1.94%

row,Structure (SMILES),"hERG current change (%, negative = inhibition) at 10uM"
1,COc1ccc(CCNc2c([N+](=O)[O-])ncn2C)cc1OC,15.2%
2,CCOC(=O)Cc1csc(SCC(=O)c2c(N)n(CC(C)C)c(=O)n(C)c2=O)n1,-2.23%
3,Cc1ccc(S(=O)(=O)NNC(=O)CCC(=O)Nc2ccc(C)cc2C)cc1,5.5%
4,Cc1cccn2c(CNCCc3ccccn3)c(C(=O)N3CCOCC3)nc12,-2.02%
5,COc1ccc(C(=O)NNC(=O)CN(C)S(=O)(=O)c2ccc(Cl)cc2)c(OC)c1OC,-49.7%
6,COC(=O)c1c(C)cc(O)c(C)c1O,12.4%
7,CC(=O)Nc1cccc(N2C(=O)CC(Cc3ccccc3)C2=O)c1 (stereo not drawn),-11.4%
8,CC1CN(CCc2ccccc2)CC(C)O1 (stereo not drawn),11.1%
9,COc1ccc(S(=O)(=O)N2CCC(C(=O)N[C@H](C(=O)NC3CCCC3)C(C)C)CC2)cc1,14.5%
10,CCCn1c(SCC(=O)c2c(N)n(C3CC3)c(=O)[nH]c2=O)nc2cc(S(N)(=O)=O)ccc21,-2.63%
11,CCCC(=O)Nc1nnc(/C=C/c2ccc(OC)cc2)s1,12.4%
12,COC(=O)c1oc2ccccc2c1NC(=O)/C=C/C(=O)O,9.76%
13,O=C(Nc1ccccc1F)C(=O)c1cn(CC(=O)N2CCCCC2)c2ccccc12,13.8%
14,C=C(C)CSc1nc2sc3c(c2c(=O)n1C1CCCCC1)CCN(C)C3,-41.4%
15,N#Cc1nc(COc2ccc(-c3ccccc3)cc2)oc1NCc1cccnc1,-19.3%
16,Cc1ccccc1-n1nnnc1SCC(C)C,6.93%
17,Cc1nn(-c2ccc(F)cc2)c(C)c1NS(=O)(=O)c1ccc(Cl)cc1,-12.1%
18,COc1cccc(-n2c(CN3CCN(c4cccc(C)c4)C(C)C3)nc3ccc([N+](=O)[O-])cc3c2=O)c1 (stereo not drawn),-4.37%
19,NS(=O)(=O)c1ccc(CCNC(=O)CSc2ncnc3ccccc23)cc1,19%
20,CCOC(=O)c1sc(NC(=O)CSc2nccc(C)n2)nc1C,-5.59%
21,CCCCN(C(=O)C1CCC1)c1c(N)n(Cc2ccccc2)c(=O)[nH]c1=O,-0.98%
22,CCOC(=O)NC(NCc1cccc(C(F)(F)F)c1)(C(F)(F)F)C(F)(F)F,-1.81%

row,Structure (SMILES),"hERG current change (%, negative = inhibition) at 10uM"
1,Cc1cc(Sc2ncnc(N)c2[N+](=O)[O-])ncn1,12.7%
2,Cc1ccc(CSCC(=O)NN=C2CCN(C)CC2)cc1,2.08%
3,CCOc1ccccc1Nc1nnc(SCc2nnc(-c3cc(OC)c(OC)c(OC)c3)o2)s1,-10.3%
4,COC(=O)CN(C(=S)Nc1ccc(F)cc1)C1CC(=O)N(c2ccccc2)C1=O (stereo not drawn),-2.41%
5,Cc1cccc(N2C(=O)CC(SC(=Nc3ccccc3)Nc3ccccc3)C2=O)c1 (stereo not drawn),-2.5%
6,Cc1onc(-c2c(F)cccc2Cl)c1C(=O)NCc1ccccc1,-7.14%
7,O=C(c1ccc(=O)[nH]n1)N1CCc2ccccc2C1,5.67%
8,Clc1nssc1=Nc1nncs1,21.7%
9,CCCNC(=O)C(Cc1ccccc1)NS(=O)(=O)c1ccc2c(c1)CCC(=O)N2 (stereo not drawn),6.92%
10,COc1ccc(CCNC(=O)/C=C/c2ccc(OC)c(S(=O)(=O)N3CCOCC3)c2)cc1,-20.3%
11,C/C(=N\OC(=O)c1ccc(F)cc1)c1sc(-c2ccc(Cl)cc2)nc1C,16.3%
12,Cc1ccc(S(=O)(=O)N2CCN(CC(O)c3ccccc3)CC2)cc1 (stereo not drawn),9.49%
13,Cc1occc1-c1nnc(SCC(=O)N(C)CCC#N)n1N,4.44%
14,CCNC(=S)Nc1ccc(Cc2ccncc2)cc1,-4.01%
15,Cc1cc(C)cc(OCC(=O)Nc2cccc(C(=O)O)c2)c1,18.5%
16,COc1ccccc1CNC(=O)CCC(=O)N1CCOc2ccc(C)cc21,-17.9%
17,O=C(CCN1C(=O)C2C3C=CC(C3)C2C1=O)N1CCN(c2ccc(F)cc2)CC1 (stereo not drawn),-25.8%
18,CCOC(=O)CSc1nnc(-c2ccc(NS(=O)(=O)c3ccc(C)cc3)cc2)o1,-14.9%
19,COc1ccc(C2CC(c3cccs3)=NN2C(=O)COC(=O)c2cncc(Br)c2)cc1OC (stereo not drawn),-4.65%
20,CCC(C)[C@H](NC(=O)OC(C)(C)C)C(=O)NCC1CCC(C(=O)N[C@@H](Cc2ccccc2)C(=O)O)CC1 (stereo partly drawn),19.8%
21,COc1ccc(NC(=O)c2cc(S(=O)(=O)NCC3COc4ccccc4O3)ccc2F)cc1 (stereo not drawn),-19.1%
